Measured values from the supplement of paper PMC10126150.
Values marked as one replicate rest on one cluster of the flow cell; about a third of the high ones do not repeat.
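Also: ATP exposure 15 min at 22 °C before imaging.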

These sequences were tested on ATP (assay: switch fluorescence ratio, 500 uM ATP over buffer (Cy3 cluster intensity, sum of 5 cycles each) (fold (ratio)); higher = stronger signal-on switching upon ATP binding; sequences stand for … in TCGTCGGCAGCGTCAGATGTGTATAAGAGACAGTTTTTTTTTTTTTTTTTTTTTTTTT…TC). Details: aptamer strand: ATP DNA aptamer (quencher-CACCTGGGGGAGTATTGCGGAGGAAGG + anchor), 100 nM annealed; ATP concentration: 500 uM; one replicate.
Procedure, shortened: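 The fluorescence ratio divides summed target-cycle Cy3 intensity by summed buffer-cycle Cy3 intensity for each cluster and is averaged per switch-domain sequence. Cy3-labelled switching-strand clusters on a modified Illumina MiSeq flow-cell were annealed to 100 nM quencher-labelled ATP aptamer, then imaged in selection buffer and again after 15 min with 500 uM ATP at 22 °C. Five such cycles were run, with NaOH stripping and re-annealing between them, and clusters outside 100-1000 RFU were excluded.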
AGCCTCATTG showed a switch fluorescence ratio of 1.01. AGCCTGAC gave a switch fluorescence ratio of 2.25. With AGCCTGACCC the switch fluorescence ratio was 1.24. For AGCGAAGGAC, the switch fluorescence ratio was 1.1. With AGCGAATCCC the switch fluorescence ratio was 1.16. Work on AGCGAGGCGT yielded a switch fluorescence ratio of 1.01. Sequence AGCGAGGTCA has a switch fluorescence ratio of 0.991. Sequence AGCGATAGGA has a switch fluorescence ratio of 1.15. With AGCGATGATG the switch fluorescence ratio was 0.932. With AGCGCAGGGG the switch fluorescence ratio was 1.04. For AGCGCATTAC, the switch fluorescence ratio was 3.99. In the case of AGCGCATTGA, the switch fluorescence ratio is reported as 1. In the case of AGCGCTCAAA, the switch fluorescence ratio is reported as 0.985. For AGCGCTGGGG, the switch fluorescence ratio was 0.994. Work on AGCGGAGTGT yielded a switch fluorescence ratio of 0.99. For AGCGGATTGA, the switch fluorescence ratio was 1.02. Work on AGCGGCCACT yielded a switch fluorescence ratio of 1.01. In the case of AGCGGCCGGA, the switch fluorescence ratio is reported as 1.02. Sequence AGCGGGAAGT has a switch fluorescence ratio of 1.08. AGCGGGCAAA gave a switch fluorescence ratio of 1.09. With AGCGGGTGAC the switch fluorescence ratio was 1.05. Work on AGCGGTGTTC yielded a switch fluorescence ratio of 0.989. Sequence AGCGTAAACG has a switch fluorescence ratio of 0.956. Sequence AGCGTAGCTG has a switch fluorescence ratio of 1.03. In the case of AGCGTCCAGC, the switch fluorescence ratio is reported as 1.04. In the case of AGCTAAGATT, the switch fluorescence ratio is reported as 0.99. With AGCTAATTAG the switch fluorescence ratio was 1.03. In the case of AGCTACGAAG, the switch fluorescence ratio is reported as 0.998. With AGCTACGGGA the switch fluorescence ratio was 1.14. In the case of AGCTACGGT, the switch fluorescence ratio is reported as 1.05. In the case of AGCTACTGTT, the switch fluorescence ratio is reported as 1.05. AGCTAGTACC showed a switch fluorescence ratio of 1.11. AGCTATCTCG was tested, and the switch fluorescence ratio was 1.11. Work on AGCTATGATG yielded a switch fluorescence ratio of 1.01. Sequence AGCTATTACC has a switch fluorescence ratio of 1.11. In the case of AGCTCACTGG, the switch fluorescence ratio is reported as 1.06. AGCTCAGTCT gave a switch fluorescence ratio of 0.991. Work on AGCTCCAAGG yielded a switch fluorescence ratio of 1.02. For AGCTCCTGT, the switch fluorescence ratio was 1.01. Work on AGCTCGACAA yielded a switch fluorescence ratio of 1.08. Sequence AGCTCGCAAA has a switch fluorescence ratio of 1.33. Work on AGCTCGGGAT yielded a switch fluorescence ratio of 0.995. Work on AGCTCTATGA yielded a switch fluorescence ratio of 0.961. For AGCTCTCGCC, the switch fluorescence ratio was 1.07. Work on AGCTGAATG yielded a switch fluorescence ratio of 1.01. Sequence AGCTGACCGG has a switch fluorescence ratio of 0.88. Work on AGCTGAGTTG yielded a switch fluorescence ratio of 1.03. Sequence AGCTGATCAC has a switch fluorescence ratio of 1.09. For AGCTGATTGG, the switch fluorescence ratio was 1.01. Sequence AGCTGCTGTG has a switch fluorescence ratio of 0.979. With AGCTGGATCT the switch fluorescence ratio was 1.03. Work on AGCTGGATTA yielded a switch fluorescence ratio of 0.984. AGCTGGGCCG was tested, and the switch fluorescence ratio was 1. AGCTGGGTTA was tested, and the switch fluorescence ratio was 1.03. In the case of AGCTGGTTAA, the switch fluorescence ratio is reported as 0.976. In the case of AGCTGTAATA, the switch fluorescence ratio is reported as 0.996. AGCTGTGAGA showed a switch fluorescence ratio of 1.07. AGCTTAGGAA was tested, and the switch fluorescence ratio was 0.998. For AGCTTGAACT, the switch fluorescence ratio was 1.02. With AGCTTGTCAC the switch fluorescence ratio was 1.08. Work on AGCTTTGAGG yielded a switch fluorescence ratio of 1.01. With AGCTTTTTGG the switch fluorescence ratio was 0.975. AGGAACGTGT showed a switch fluorescence ratio of 0.994. AGGAACTGAG was tested, and the switch fluorescence ratio was 1.03. AGGAAGAAGC gave a switch fluorescence ratio of 1.01. Work on AGGAAGAGTG yielded a switch fluorescence ratio of 0.928. AGGAAGCGGC showed a switch fluorescence ratio of 0.997. AGGAAGGACA showed a switch fluorescence ratio of 1.01. AGGAAGGTTA gave a switch fluorescence ratio of 1.02. In the case of AGGAAGTCGA, the switch fluorescence ratio is reported as 1.01. AGGACAAGAA gave a switch fluorescence ratio of 1.01. Work on AGGACACACG yielded a switch fluorescence ratio of 1.15. Sequence AGGACATAGG has a switch fluorescence ratio of 1.03. AGGACCAAGC showed a switch fluorescence ratio of 1.02. Sequence AGGACCAGTC has a switch fluorescence ratio of 1.05. In the case of AGGACCTGAA, the switch fluorescence ratio is reported as 1.07. AGGACGAAA gave a switch fluorescence ratio of 1.11. Sequence AGGACGTAAG has a switch fluorescence ratio of 0.96. AGGACGTTCT was tested, and the switch fluorescence ratio was 0.947. AGGACTAGGG gave a switch fluorescence ratio of 0.943. Work on AGGACTCTCT yielded a switch fluorescence ratio of 0.998. AGGACTGGGC was tested, and the switch fluorescence ratio was 0.944. With AGGACTTAGC the switch fluorescence ratio was 1.01. For AGGAGAAA, the switch fluorescence ratio was 1.02. With AGGAGAAAAC the switch fluorescence ratio was 0.976. With AGGAGAAATC the switch fluorescence ratio was 1.01. Work on AGGAGCTAT yielded a switch fluorescence ratio of 1.08. AGGAGGAGCA gave a switch fluorescence ratio of 0.938. With AGGAGGCAGC the switch fluorescence ratio was 0.959. Work on AGGAGGTCGC yielded a switch fluorescence ratio of 0.988. Work on AGGAGGTGTA yielded a switch fluorescence ratio of 1. In the case of AGGAGTAC, the switch fluorescence ratio is reported as 1.02. AGGAGTATAG showed a switch fluorescence ratio of 0.987. For AGGAGTCCAT, the switch fluorescence ratio was 0.99. In the case of AGGAGTGGGC, the switch fluorescence ratio is reported as 0.718. AGGAGTGTTG showed a switch fluorescence ratio of 1.01. Sequence AGGATCACTC has a switch fluorescence ratio of 1. In the case of AGGATCTGGG, the switch fluorescence ratio is reported as 0.973. AGGATGCCGT gave a switch fluorescence ratio of 1.05. In the case of AGGATGGAA, the switch fluorescence ratio is reported as 0.952. AGGATGGGGC gave a switch fluorescence ratio of 1.14. Work on AGGATTACAT yielded a switch fluorescence ratio of 1.02. For AGGATTCGTG, the switch fluorescence ratio was 0.982. With AGGCACAGTC the switch fluorescence ratio was 0.996. AGGCAGCT was tested, and the switch fluorescence ratio was 1.02. Sequence AGGCAGGATG has a switch fluorescence ratio of 0.938. With AGGCATGTTG the switch fluorescence ratio was 0.988. For AGGCATTGCT, the switch fluorescence ratio was 1.03. With AGGCCAACAG the switch fluorescence ratio was 1.01. In the case of AGGCCCAACG, the switch fluorescence ratio is reported as 1. In the case of AGGCCCCGGT, the switch fluorescence ratio is reported as 1.06. With AGGCCGTTGA the switch fluorescence ratio was 0.982. With AGGCCTGC the switch fluorescence ratio was 0.973. AGGCCTTCTT gave a switch fluorescence ratio of 0.95. Sequence AGGCGATTCG has a switch fluorescence ratio of 0.972. In the case of AGGCGATTGC, the switch fluorescence ratio is reported as 1. For AGGCGCGTAT, the switch fluorescence ratio was 1.06. In the case of AGGCGGATAT, the switch fluorescence ratio is reported as 0.99. Work on AGGCGGCATT yielded a switch fluorescence ratio of 0.975. With AGGCGGGACG the switch fluorescence ratio was 0.961. Work on AGGCTAATAA yielded a switch fluorescence ratio of 0.982. AGGCTACTTA gave a switch fluorescence ratio of 1. In the case of AGGCTCTGAC, the switch fluorescence ratio is reported as 0.981. AGGCTGGGAC gave a switch fluorescence ratio of 1.03. In the case of AGGGAATTAT, the switch fluorescence ratio is reported as 1. AGGGACCGAA was tested, and the switch fluorescence ratio was 1.04. Sequence AGGGACGTCA has a switch fluorescence ratio of 1.06. In the case of AGGGACGTTG, the switch fluorescence ratio is reported as 1.03. AGGGACTCGC was tested, and the switch fluorescence ratio was 0.984. For AGGGACTGCT, the switch fluorescence ratio was 1. In the case of AGGGAGAGGG, the switch fluorescence ratio is reported as 1.02. Sequence AGGGAGGTAT has a switch fluorescence ratio of 0.941. AGGGAGTGAA gave a switch fluorescence ratio of 0.988. With AGGGATGGAG the switch fluorescence ratio was 1.02. Work on AGGGATTACC yielded a switch fluorescence ratio of 1.25. For AGGGATTCTA, the switch fluorescence ratio was 0.959. With AGGGCAAGC the switch fluorescence ratio was 1.34. In the case of AGGGCATGCT, the switch fluorescence ratio is reported as 1.02. AGGGCCGTG gave a switch fluorescence ratio of 1.03. With AGGGCGCGTC the switch fluorescence ratio was 1. For AGGGCGCTAA, the switch fluorescence ratio was 1.02. AGGGCGGCCA gave a switch fluorescence ratio of 0.981. AGGGCTAGAA showed a switch fluorescence ratio of 0.991. For AGGGCTAGGT, the switch fluorescence ratio was 0.922. Sequence AGGGCTGGTG has a switch fluorescence ratio of 1.01. AGGGGAACT showed a switch fluorescence ratio of 1.13. For AGGGGACCTT, the switch fluorescence ratio was 1.04. With AGGGGACGT the switch fluorescence ratio was 0.992. AGGGGAGCTG showed a switch fluorescence ratio of 1.02. AGGGGAGGG was tested, and the switch fluorescence ratio was 0.976. In the case of AGGGGATAAC, the switch fluorescence ratio is reported as 0.982. AGGGGGTCAA gave a switch fluorescence ratio of 0.971. For AGGGGTCACA, the switch fluorescence ratio was 0.954. In the case of AGGGGTGACA, the switch fluorescence ratio is reported as 1. With AGGGGTGGT the switch fluorescence ratio was 1.04. Sequence AGGGGTTGCT has a switch fluorescence ratio of 0.992. Work on AGGGTAAGAT yielded a switch fluorescence ratio of 0.952. For AGGGTAATCC, the switch fluorescence ratio was 1.05. Sequence AGGGTACCGT has a switch fluorescence ratio of 1.01. For AGGGTACCTT, the switch fluorescence ratio was 1.02. Work on AGGGTAGACT yielded a switch fluorescence ratio of 0.964. AGGGTCATGA gave a switch fluorescence ratio of 1.08. Work on AGGGTCGTAT yielded a switch fluorescence ratio of 0.996. In the case of AGGGTGAAGC, the switch fluorescence ratio is reported as 1.09. AGGGTGGTAA was tested, and the switch fluorescence ratio was 1.02. AGGGTGTCAG was tested, and the switch fluorescence ratio was 1.08. AGGGTGTTGT was tested, and the switch fluorescence ratio was 0.99. AGGGTTCTAT was tested, and the switch fluorescence ratio was 0.955. AGGGTTGAGG was tested, and the switch fluorescence ratio was 1.08. With AGGTAACCTG the switch fluorescence ratio was 1.3. With AGGTAATATT the switch fluorescence ratio was 1. AGGTACCTGG showed a switch fluorescence ratio of 1.03. Sequence AGGTACTCTT has a switch fluorescence ratio of 1.04. AGGTACTTGC showed a switch fluorescence ratio of 1.02. For AGGTAGCTAT, the switch fluorescence ratio was 1.01. Work on AGGTAGGATA yielded a switch fluorescence ratio of 1.04. AGGTAGGCAG gave a switch fluorescence ratio of 0.941. For AGGTAGGGAT, the switch fluorescence ratio was 1.15. AGGTATATCT was tested, and the switch fluorescence ratio was 0.996. AGGTATATTT showed a switch fluorescence ratio of 1.02. AGGTATCCGT was tested, and the switch fluorescence ratio was 1.04. AGGTATGA showed a switch fluorescence ratio of 0.971. AGGTCAAACG showed a switch fluorescence ratio of 1.01. Sequence AGGTCACCGG has a switch fluorescence ratio of 1.03. Sequence AGGTCCCTTG has a switch fluorescence ratio of 0.993. AGGTCGA gave a switch fluorescence ratio of 1.02. Work on AGGTCTATGT yielded a switch fluorescence ratio of 0.986. For AGGTCTGGAA, the switch fluorescence ratio was 0.975. AGGTGAGGTG gave a switch fluorescence ratio of 0.971. For AGGTGCAATC, the switch fluorescence ratio was 1.86. In the case of AGGTGCGCCT, the switch fluorescence ratio is reported as 0.965. AGGTGCGGCC showed a switch fluorescence ratio of 1. AGGTGCTACT showed a switch fluorescence ratio of 1.03. In the case of AGGTGGCTTG, the switch fluorescence ratio is reported as 1.01. Work on AGGTGGGAG yielded a switch fluorescence ratio of 0.986. AGGTGTAGGT gave a switch fluorescence ratio of 0.975. In the case of AGGTGTATAT, the switch fluorescence ratio is reported as 1.04. AGGTGTTTTC gave a switch fluorescence ratio of 1. Sequence AGGTTAGGAC has a switch fluorescence ratio of 0.997. For AGGTTAGGCC, the switch fluorescence ratio was 0.98. AGGTTAGTTA gave a switch fluorescence ratio of 0.988.
